These results are taken from patent US20220135687A1 (NANJING LEGEND BIOTECH, published 2022).

The target in assay [1] is T1, cynomolgus PD-L1 overexpressing stable cell line (cynomolgus, UniProt G7PSE7 19-290).
T1 construct: also called cynomolgus PD-L1 overexpressing cell line
Kind of assay: FACS, cynomolgus PD-L1 cell line. In general terms: In flow cytometry, cells or beads pass a laser one at a time.

In assay [2] the target is T2, human PD-L1 expressed on CHO-K1 cells (Genscript, Cat #M00543) (human, UniProt Q9NZQ7).
T2 construct: also called PD-L1 cell line
Kind of assay: FACS, CHO-K1/human PD-L1 cells. As to the method:
PD-L1 stable cell line binding activity assessment of 12 mouse mAbs was carried out using FACS. CHO-K1 cells expressing human PD-L1 (Genscript, Cat #M00543) were dissociated from adherent culture flasks and mixed with varying concentrations of antibodies. The antibody and cells were incubated for 30 minutes at room temperature, washed three times with FACS buffer (PBS containing 1% BSA). PE-labeled goat anti-mouse IgG (minimal x-reactivity) secondary antibody (BioLegend, Cat #405307) was added and incubated at room temperature for 15 minutes. Cells were washed again with FACS buffer and analyzed by FACSCalibur (BD Bioscience, San Jose, Calif.) and Flowjo software. Data were analyzed with Prism 6 (GraphPad Software, San Diego, Calif.) using non-linear regression, and EC₅₀ values were calculated (FIGS. 2A-2L and Table 3).
Human and cynomolgus PD-L1 stable cell line binding activity assessment of chimeric and humanized mAbs was carried out using FACS as described above (FIGS. 9A-9L and FIGS. 10A-10L and Tables 13 and 14).

Assay [3] has as its target T3, His-tagged PD-L1 ECD protein (ACROBiosystems) (human, UniProt Q9NZQ7 partial chain).
T3 construct: Bought protein; also called PD-L1-His; PD-L1/His; not shown: His tag
Kind of assay: SPR, supernatant IgG captured, PD-L1-His analyte. In general terms: Surface plasmon resonance follows binding to a sensor surface in real time, without labels.

In assay [4] the target is T2, human PD-L1 expressed on CHO-K1 cells …. In words: FACS competition vs biotin-PD-1-Fc on CHO-K1/human PD-L1 cells. As to the method: A series of diluted mouse mAbs (concentration starting from 900 nM, 3 fold dilution, 50 μl per well) were added afterwards. The mixture was incubated at 4° C. for 30 minutes, washed twice with wash buffer, followed by the addition of PEcy5/streptavidin (1 μg/ml, 150 μl/well). The plates were again incubated at 4° C. for 30 minutes before the cells in each well were analyzed by FACSCalibur (BD Bioscience, San Jose, Calif.) and Flowjo software.

Assay [5] deals with cynomolgus PD-L1 Fc-fusion protein (cynomolgus, UniProt G7PSE7 19-238). In words: SPR, cyno PD-L1-Fc immobilised, antibody analyte.
For assay [6], the target named is T2, human PD-L1 expressed on CHO-K1 cells …. Kind of assay: cell-based or functional assay.
For assay [7], the target named is T3, His-tagged PD-L1 ECD protein …. Kind of assay: SPR, IgG captured by anti-human Fc, PD-L1-His analyte. As to the method:
Briefly, capturing antibody (anti-mouse Fc antibody for the affinity measurement of mouse mAbs, or anti-human Fc antibody for the affinity measurement of chimeric and humanized mAbs, GE healthcare) was immobilized on a Biacore™ CM5 chip to approximately 7,000 RU using EDC-activated amine coupling chemistry. Antibody of interest (5 μg/ml) was captured for 60 seconds onto the sensorchip surface. His-tagged PD-L1 ECD protein (ACROBiosystems) was flowed over the sensorchip surface at a series concentrations. Flow rate was 30 μl/min in all experiments. Association and dissociation phases were 5 and 15 min, respectively. The chip was regenerated using Glycine/HCl pH 1.5. Captured antibody and antigen were removed between each cycle using 50 mM HCl in order to ensure a fresh binding surface for each concentration of antigen. The resulting sensorgrams were fit globally using a 1:1 binding model in order to calculate on- and off-rates (ka and kd, respectively), as well as affinities (KD).

B1: 53C1_VH5-VL1.M1 (antibody, human IgG1, kappa)
heavy: EVQLVQSGAEVKKPGASVKVSCKASGYIFTGYGITWVRQAPGQGLEWMGEIFPRRVNTYYSEKFKGRVTMTADTSTSTAYMELRSLRSDDTAVYYCARDYDPYFALDYWGQGTTVTVSSASTKGPSVFPLAPSSKSTSGGTAALGCLVKDYFPEPVTVSWNSGALTSGVHTFPAVLQSSGLYSLSSVVTVPSSSLGTQTYICNVNHKPSNTKVDKKV[sequence of human IgG1 Fc with changes omitted]
light: DIQMTQSPSSLSASVGDRVTITCRASQDVSTAVDWYQQKPGKAPKLLIYSASYRYTGVPDRFSGSGSGTDFTFTISSLQPEDIATYYCQQHYSIPFTFGQGTKLEIKRTVAAPSVFIFPPSDEQLKSGTASVVCLLNNFYPREAKVQWKVDNALQSGNSQESVTEQDSKDSTYSLSSTLTLSKADYEKHKVYACEVTHQGLSSPVTKSFNRGEC
notes: Humanized, hIgG1 effector-less Fc, kappa; see recheck on K24R in the .M1 light chain
Broadly, the EC50 is the concentration that produces a half-maximal response. Low values mean greater potency, high ones weaker potency. As a reminder, the Kd is the concentration at which binding is half-saturated. A high value points to a looser complex. As usually defined, the koff is the rate constant with which the complex falls apart. Low values mean slow dissociation, high ones fast dissociation. In general, kon refers to the second-order rate constant of association. Low values mean slower complex formation, high ones faster complex formation. As a reminder, the IC50 is the midpoint of a concentration-inhibition curve. On to B1, for which, in assay [1], the EC50 was determined as 4.77 nM and the “Top (best-fit value)” value came to 8390. Besides, in assay [2], the midpoint of the response, the EC50, lay at 1.96 nM and the “Top (best-fit value)” value is 6450. In assay [3], this molecule came in with a Kd of 0.31 nM, an off-rate constant (koff) of 0.00012 s⁻¹ and an on-rate constant (kon) of 380000 M⁻¹ s⁻¹. In addition, the IC50 in assay [4] was found to be 0.429 nM. In assay [5], this molecule showed an equilibrium dissociation constant (Kd) of 0.83 nM, a koff of 8.4e-05 s⁻¹ and an on-rate constant (kon) of 100000 M⁻¹ s⁻¹. The “EC50, PD-L1 cell-based luciferase reporter assay” value in assay [6] was 2.33 nM. In assay [7], the affinity, expressed as Kd, was 0.47 nM; the koff was 0.00015 s⁻¹; the on-rate constant (kon) worked out at 310000 M⁻¹ s⁻¹.

B2: 53C1_VH6-VL1.M1 (antibody, human IgG1, kappa)
heavy: EVQLVQSGAEVKKPGASVKLSCKASGYIFTGYGITWVRQAPGQGLEWMGEIFPRRVNTYYSEKFKGRVTMTADTSTSTAYMELRSLRSDDTAVYYCARDYDPYFALDYWGQGTTVTVSSASTKGPSVFPLAPSSKSTSGGTAALGCLVKDYFPEPVTVSWNSGALTSGVHTFPAVLQSSGLYSLSSVVTVPSSSLGTQTYICNVNHKPSNTKVDKKV[sequence of human IgG1 Fc with changes omitted]
light: DIQMTQSPSSLSASVGDRVTITCRASQDVSTAVDWYQQKPGKAPKLLIYSASYRYTGVPDRFSGSGSGTDFTFTISSLQPEDIATYYCQQHYSIPFTFGQGTKLEIKRTVAAPSVFIFPPSDEQLKSGTASVVCLLNNFYPREAKVQWKVDNALQSGNSQESVTEQDSKDSTYSLSSTLTLSKADYEKHKVYACEVTHQGLSSPVTKSFNRGEC
notes: as for B1
In assay [3], B2 yielded a Kd of 0.27 nM, a koff of 0.0001 s⁻¹ and a kon of 370000 M⁻¹ s⁻¹.

B3: 53C1_VH4-VL1.M1 (antibody, human IgG1, kappa)
heavy: EVQLVQSGAEVKKPGASVKLSCKASGYIFTGYGITWVRQAPGQGLEWMGEIFPRRVNTYYSEKFKGRVTMTTDTSTSTAYMELRSLRSDDTAVYYCARDYDPYFALDYWGQGTTVTVSSASTKGPSVFPLAPSSKSTSGGTAALGCLVKDYFPEPVTVSWNSGALTSGVHTFPAVLQSSGLYSLSSVVTVPSSSLGTQTYICNVNHKPSNTKVDKKV[sequence of human IgG1 Fc with changes omitted]
light: DIQMTQSPSSLSASVGDRVTITCRASQDVSTAVDWYQQKPGKAPKLLIYSASYRYTGVPDRFSGSGSGTDFTFTISSLQPEDIATYYCQQHYSIPFTFGQGTKLEIKRTVAAPSVFIFPPSDEQLKSGTASVVCLLNNFYPREAKVQWKVDNALQSGNSQESVTEQDSKDSTYSLSSTLTLSKADYEKHKVYACEVTHQGLSSPVTKSFNRGEC
notes: as for B1
B3: in assay [3], binding was put at a Kd of 0.75 nM, the koff was 0.0002 s⁻¹ and the kon worked out at 260000 M⁻¹ s⁻¹.

B4: 53C1_VH4.M3-VL1.M1 (antibody, human IgG1, kappa)
heavy: EVQLVQSGAEVKKPGASVKLSCKASGYIFTGYGITWVRQAPGQGLEWMGEIFPRRVQTYYSEKFKGRVTMTTDTSTSTAYMELRSLRSDDTAVYYCARDYDPYFALDYWGQGTTVTVSSASTKGPSVFPLAPSSKSTSGGTAALGCLVKDYFPEPVTVSWNSGALTSGVHTFPAVLQSSGLYSLSSVVTVPSSSLGTQTYICNVNHKPSNTKVDKKV[sequence of human IgG1 Fc with changes omitted]
light: DIQMTQSPSSLSASVGDRVTITCRASQDVSTAVDWYQQKPGKAPKLLIYSASYRYTGVPDRFSGSGSGTDFTFTISSLQPEDIATYYCQQHYSIPFTFGQGTKLEIKRTVAAPSVFIFPPSDEQLKSGTASVVCLLNNFYPREAKVQWKVDNALQSGNSQESVTEQDSKDSTYSLSSTLTLSKADYEKHKVYACEVTHQGLSSPVTKSFNRGEC
notes: Humanized, VH N57Q in the entry; hIgG1 effector-less Fc, kappa; see recheck on K24R in the .M1 light chain
Consider B4, for which, in assay [3], binding was put at a Kd of 0.32 nM, the dissociation rate constant (koff) worked out at 9.8e-05 s⁻¹ and the association rate constant (kon) amounted to 310000 M⁻¹ s⁻¹.

B5: 53C1_VH1-VL1.M1 (antibody, human IgG1, kappa)
heavy: EVQLVQSGAEVKKPGASVKVSCKASGYIFTGYGITWVRQAPGQGLEWMGEIFPRRVNTYYSEKFKGRVTMTTDTSTSTAYMELRSLRSDDTAVYYCARDYDPYFALDYWGQGTTVTVSSASTKGPSVFPLAPSSKSTSGGTAALGCLVKDYFPEPVTVSWNSGALTSGVHTFPAVLQSSGLYSLSSVVTVPSSSLGTQTYICNVNHKPSNTKVDKKV[sequence of human IgG1 Fc with changes omitted]
light: DIQMTQSPSSLSASVGDRVTITCRASQDVSTAVDWYQQKPGKAPKLLIYSASYRYTGVPDRFSGSGSGTDFTFTISSLQPEDIATYYCQQHYSIPFTFGQGTKLEIKRTVAAPSVFIFPPSDEQLKSGTASVVCLLNNFYPREAKVQWKVDNALQSGNSQESVTEQDSKDSTYSLSSTLTLSKADYEKHKVYACEVTHQGLSSPVTKSFNRGEC
notes: as for B1
Regarding B5, in assay [1], the EC50 stood at 2.76 nM and the “Top (best-fit value)” value amounted to 8430. For the same molecule, in assay [2], the response was half-maximal at 1.12 nM (EC50) and the “Top (best-fit value)” value worked out at 6370. In assay [3], this molecule displayed a Kd of 1.1 nM, an off-rate (koff) of 0.00026 s⁻¹ and an association rate constant (kon) of 240000 M⁻¹ s⁻¹. Further, in assay [4], the IC50 was determined as 0.902 nM. In assay [5], this molecule registered a Kd of 0.86 nM, a koff of 6.4e-05 s⁻¹ and an association rate constant (kon) of 75000 M⁻¹ s⁻¹. In assay [6], the “EC50, PD-L1 cell-based luciferase reporter assay” value amounted to 2.52 nM. For the same molecule, in assay [7], the Kd turned out to be 1.3 nM, the off-rate constant (koff) worked out at 0.00027 s⁻¹ and the on-rate constant (kon) worked out at 200000 M⁻¹ s⁻¹.

B6: 53C1_VH6.M3-VL1.M1 (antibody, human IgG1, kappa)
heavy: EVQLVQSGAEVKKPGASVKLSCKASGYIFTGYGITWVRQAPGQGLEWMGEIFPRRVQTYYSEKFKGRVTMTADTSTSTAYMELRSLRSDDTAVYYCARDYDPYFALDYWGQGTTVTVSSASTKGPSVFPLAPSSKSTSGGTAALGCLVKDYFPEPVTVSWNSGALTSGVHTFPAVLQSSGLYSLSSVVTVPSSSLGTQTYICNVNHKPSNTKVDKKV[sequence of human IgG1 Fc with changes omitted]
light: DIQMTQSPSSLSASVGDRVTITCRASQDVSTAVDWYQQKPGKAPKLLIYSASYRYTGVPDRFSGSGSGTDFTFTISSLQPEDIATYYCQQHYSIPFTFGQGTKLEIKRTVAAPSVFIFPPSDEQLKSGTASVVCLLNNFYPREAKVQWKVDNALQSGNSQESVTEQDSKDSTYSLSSTLTLSKADYEKHKVYACEVTHQGLSSPVTKSFNRGEC
notes: as for B4
Consider B6, for which, in assay [3], the dissociation constant (Kd) was 0.17 nM, the off-rate constant (koff) was 6.3e-05 s⁻¹ and the kon was 370000 M⁻¹ s⁻¹.
